# Source: the supplement of paper PMC8728848
# Some of the results follow.
# Columns and labels:
# Test in all cases: glycan array binding signal (z-score within array); higher = stronger binding
# Conditions in all cases: glycan notation: IUPAC condensed, linker removed
# [1] = molecular target: Gal(a1-3)Gal(b1-4)GlcNAc
# How it was run: (§1)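 Glycan array data came from 3228 arrays in the Consortium for Functional Glycomics database, and only arrays with an available protein sequence were kept. Glycan names were put into IUPAC-condensed notation, and columns mapping to the same glycan were averaged. The binding signal is a within-array Z-score, averaged across arrays of one protein sequence run at different concentrations or buffers and across linkers. A negative Z-score can be read as non-binding.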
# [2] = molecular target: Gal(a1-3)Gal(b1-4)GlcNAc(b1-2)Man
# How it was run: as §1
# [3] = molecular target: Gal(a1-3)Gal(b1-4)GlcNAc(b1-2)Man(a1-3)[Gal(a1-3)Gal(b1-4)GlcNAc(b1-2)Man(a1-6)]Man(b1-4)GlcNAc(b1-4)GlcNAc
# How it was run: as §1
# [4] = molecular target: Gal(a1-3)Gal(b1-4)GlcNAc(b1-3)GalNAc
# How it was run: as §1
# [5] = molecular target: Gal(a1-3)Gal(b1-4)GlcNAc(b1-6)GalNAc
# How it was run: as §1
# [6] = molecular target: Gal(a1-3)Gal(b1-4)[Fuc(a1-3)]GlcNAc
# How it was run: as §1
# [7] = molecular target: Gal(a1-3)Gal(b1-4)[Fuc(a1-3)]GlcNAc(b1-2)Man(a1-3)[Gal(a1-3)Gal(b1-4)[Fuc(a1-3)]GlcNAc(b1-2)Man(a1-6)]Man(b1-4)GlcNAc(b1-4)GlcNAc
# How it was run: as §1
# [8] = molecular target: Gal(a1-3)GalNAc
# How it was run: as §1
# [9] = molecular target: Gal(a1-3)[Gal(a1-4)]Gal(b1-4)GlcNAc
# How it was run: as §1
# [10] = molecular target: Gal(a1-4)Gal(b1-3)GlcNAc(b1-2)Man(a1-3)[Gal(a1-4)Gal(b1-3)GlcNAc(b1-2)Man(a1-6)]Man(b1-4)GlcNAc(b1-4)GlcNAc
# How it was run: as §1
# [11] = molecular target: Gal(a1-4)Gal(b1-4)Glc
# How it was run: as §1
# [12] = molecular target: Gal(a1-4)Gal(b1-4)GlcNAc
# How it was run: as §1
# [13] = molecular target: Gal(a1-4)Gal(b1-4)GlcNAc(b1-2)Man(a1-3)[Gal(a1-4)Gal(b1-4)GlcNAc(b1-2)Man(a1-6)]Man(b1-4)GlcNAc(b1-4)GlcNAc
# How it was run: as §1
# [14] = molecular target: Gal(a1-4)Gal(b1-4)GlcNAc(b1-3)Gal(b1-4)Glc
# How it was run: as §1
# [15] = molecular target: Gal(a1-4)GlcNAc
# How it was run: as §1
# [16] = molecular target: Gal(a1-6)Glc
# How it was run: as §1
# [17] = molecular target: Gal(b1-2)Gal
# How it was run: as §1
# [18] = molecular target: Gal(b1-3)Gal
# How it was run: as §1
# [19] = molecular target: Gal(b1-3)Gal(b1-4)GlcNAc
# How it was run: as §1
# [20] = molecular target: Gal(b1-3)GalNAc
# How it was run: as §1
# [21] = molecular target: Gal(b1-3)GalNAc(a1-3)[Fuc(a1-2)]Gal(b1-4)Glc
# How it was run: as §1
# [22] = molecular target: Gal(b1-3)GalNAc(a1-3)[Fuc(a1-2)]Gal(b1-4)GlcNAc
# How it was run: as §1
# [23] = molecular target: Gal(b1-3)GalNAc(b1-3)Gal
# How it was run: as §1
# [24] = molecular target: Gal(b1-3)GalNAc(b1-3)Gal(a1-4)Gal(b1-4)Glc
# How it was run: as §1
# [25] = molecular target: Gal(b1-3)GalNAc(b1-4)Gal(b1-4)Glc
# How it was run: as §1
# [26] = molecular target: Gal(b1-3)GalNAc(b1-4)[Neu5Ac(a2-3)]Gal(b1-4)Glc
# How it was run: as §1
# [27] = molecular target: Gal(b1-3)GlcNAc
# How it was run: as §1
# [28] = molecular target: Gal(b1-3)GlcNAc(a1-3)Gal(b1-4)GlcNAc
# How it was run: as §1
# [29] = molecular target: Gal(b1-3)GlcNAc(a1-6)Gal(b1-4)GlcNAc
# How it was run: as §1
# [30] = molecular target: Gal(b1-3)GlcNAc(b1-2)Man
# How it was run: as §1
# [31] = molecular target: Gal(b1-3)GlcNAc(b1-2)Man(a1-3)[Gal(b1-3)GlcNAc(b1-2)Man(a1-6)]Man(b1-4)GlcNAc(b1-4)GlcNAc
# How it was run: as §1
# [32] = molecular target: Gal(b1-3)GlcNAc(b1-2)Man(a1-3)[Gal(b1-3)GlcNAc(b1-2)Man(a1-6)]Man(b1-4)GlcNAc(b1-4)[Fuc(a1-6)]GlcNAc
# How it was run: as §1
# [33] = molecular target: Gal(b1-3)GlcNAc(b1-2)Man(a1-3)[GlcNAc(b1-4)][Gal(b1-3)GlcNAc(b1-2)Man(a1-6)]Man(b1-4)GlcNAc(b1-4)GlcNAc
# How it was run: as §1
# [34] = molecular target: Gal(b1-3)GlcNAc(b1-2)[Gal(b1-3)GlcNAc(b1-6)]Man(a1-6)[Gal(b1-3)GlcNAc(b1-2)Man(a1-3)]Man(b1-4)GlcNAc(b1-4)GlcNAc
# How it was run: as §1
# [35] = molecular target: Gal(b1-3)GlcNAc(b1-3)Gal(b1-3)GlcNAc
# How it was run: as §1
# [36] = molecular target: Gal(b1-3)GlcNAc(b1-3)Gal(b1-4)Glc
# How it was run: as §1
# [37] = molecular target: Gal(b1-3)GlcNAc(b1-3)Gal(b1-4)GlcNAc
# How it was run: as §1
# [38] = molecular target: Gal(b1-3)GlcNAc(b1-3)Gal(b1-4)GlcNAc(b1-2)Man(a1-3)[Gal(b1-3)GlcNAc(b1-3)Gal(b1-4)GlcNAc(b1-2)Man(a1-6)]Man(b1-4)GlcNAc(b1-4)GlcNAc
# How it was run: as §1
# [39] = molecular target: Gal(b1-3)GlcNAc(b1-3)Gal(b1-4)GlcNAc(b1-2)[Gal(b1-3)GlcNAc(b1-3)Gal(b1-4)GlcNAc(b1-6)]Man(a1-6)[Gal(b1-3)GlcNAc(b1-3)Gal(b1-4)GlcNAc(b1-2)Man(a1-3)]Man(b1-4)GlcNAc(b1-4)[Fuc(a1-6)]GlcNAc
# How it was run: as §1
# [40] = molecular target: Gal(b1-3)GlcNAc(b1-3)Gal(b1-4)GlcNAc(b1-3)Gal(b1-4)GlcNAc(b1-2)[Gal(b1-3)GlcNAc(b1-3)Gal(b1-4)GlcNAc(b1-3)Gal(b1-4)GlcNAc(b1-6)]Man(a1-6)[Gal(b1-3)GlcNAc(b1-3)Gal(b1-4)GlcNAc(b1-3)Gal(b1-4)GlcNAc(b1-2)Man(a1-3)]Man(b1-4)GlcNAc(b1-4)[Fuc(a1-6)]GlcNAc
# How it was run: as §1
# [41] = molecular target: Gal(b1-3)GlcNAc(b1-3)Gal(b1-4)GlcNAc(b1-6)[Gal(b1-3)GlcNAc(b1-3)]Gal(b1-4)Glc
# How it was run: as §1
# [42] = molecular target: Gal(b1-3)GlcNAc(b1-3)Gal(b1-4)[Fuc(a1-3)]GlcNAc
# How it was run: as §1
# [43] = molecular target: Gal(b1-3)GlcNAc(b1-3)Gal(b1-4)[Fuc(a1-3)]GlcNAc(b1-6)[Gal(b1-3)GlcNAc(b1-3)]Gal(b1-4)Glc
# How it was run: as §1
# [44] = molecular target: Gal(b1-3)GlcNAc(b1-3)GalNAc
# How it was run: as §1
# [45] = molecular target: Gal(b1-3)GlcNAc(b1-6)Gal(b1-4)GlcNAc
# How it was run: as §1
binder,measurement,setting,value
"LgFlo1 (Saccharomyces pastorianus), B3IUA8 (protein) SGSTQACLPVGSRKNGMNVNFYKYSLQDSTTYSDPQYMAYKYSDTKKLGSVSGQTHLSIYYGPNTAFWNTASWSSDLFGFYTTPTNVTVEMTGYFLPPQTGSYTFKFATVDDSAILSVGGSIAFECCAQEQPPITSTDFTINGIKPWDAATPTDIKGSTYMYAGYYYPIKIVYSNAKALARLPVSVVLPDGTEVNDDFEGYVYSFDDDLSQSNCTIPDPSKHTTS",glycan array binding signal (z-score),[1],-0.305
same,glycan array binding signal (z-score),[2],-0.278
same,glycan array binding signal (z-score),[3],0.385
same,glycan array binding signal (z-score),[4],-0.146
same,glycan array binding signal (z-score),[5],-0.328
same,glycan array binding signal (z-score),[6],-0.122
same,glycan array binding signal (z-score),[7],1.76
same,glycan array binding signal (z-score),[8],-0.152
same,glycan array binding signal (z-score),[9],-0.248
same,glycan array binding signal (z-score),[10],1.89
same,glycan array binding signal (z-score),[11],-0.283
same,glycan array binding signal (z-score),[12],-0.329
same,glycan array binding signal (z-score),[13],1.67
same,glycan array binding signal (z-score),[14],-0.425
same,glycan array binding signal (z-score),[15],-0.471
same,glycan array binding signal (z-score),[16],0.139
same,glycan array binding signal (z-score),[17],0.063
same,glycan array binding signal (z-score),[18],-0.354
same,glycan array binding signal (z-score),[19],0.361
same,glycan array binding signal (z-score),[20],-0.044
same,glycan array binding signal (z-score),[21],-0.439
same,glycan array binding signal (z-score),[22],-0.346
same,glycan array binding signal (z-score),[23],-0.301
same,glycan array binding signal (z-score),[24],-0.431
same,glycan array binding signal (z-score),[25],-0.344
same,glycan array binding signal (z-score),[26],-0.314
same,glycan array binding signal (z-score),[27],-0.216
same,glycan array binding signal (z-score),[28],-0.217
same,glycan array binding signal (z-score),[29],-0.315
same,glycan array binding signal (z-score),[30],-0.234
same,glycan array binding signal (z-score),[31],0.172
same,glycan array binding signal (z-score),[32],0.025
same,glycan array binding signal (z-score),[33],0.784
same,glycan array binding signal (z-score),[34],1.78
same,glycan array binding signal (z-score),[35],-0.26
same,glycan array binding signal (z-score),[36],-0.37
same,glycan array binding signal (z-score),[37],-0.558
same,glycan array binding signal (z-score),[38],-0.078
same,glycan array binding signal (z-score),[39],-0.032
same,glycan array binding signal (z-score),[40],0.352
same,glycan array binding signal (z-score),[41],-0.229
same,glycan array binding signal (z-score),[42],-0.421
same,glycan array binding signal (z-score),[43],-0.258
same,glycan array binding signal (z-score),[44],-0.183
same,glycan array binding signal (z-score),[45],-0.462
